Data from PubChem BioAssay AID1508624 (National Center for Advancing Translational Sciences (NCATS), 2021).
Screen size: about 48,000 compounds; about 120 (0.25%) were called active. Another 4% or so got no clear call; they are omitted. Calls come from the whole dose curve; as a rule, active = well fitted activation curve with a large enough effect; inconclusive = small, poorly fitted or top-dose-only effect, or another doubt; inactive = no such curve, though single readings can be large or run the other way. The entries are a selection whose mix differs from that of the whole data set. Entries without a call were filed so in the source.

Assay: Primary qHTS for Identification of Small Molecule Activators of Huntingtin-Antisense Promoter Activity; note: nearly all actives have a fitted effect of over 55% in size
Conditions: HEK293 HTT-AS promoter firefly luciferase reporter, 24 h; activity change, positive = activation: at 57.5 µM (top of the series), percent change from vehicle, -100% = no light
Procedure, shortened: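 HEK293 Fluc reporter, 2,500 cells/well, 24 h pre-culture; cpds up to 57.5 uM final, 24 h 37 degrees C; Dual-Glo, 10 min RT; normalized vehicle = 0%, zero RLU = -100%.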

Compound | activity change, positive = activation
Cc1ccc(N2CCN(c3nc4ccc(C)cc4n4nnnc34)CC2)c(C)c1 | 5.06%
COc1cc2c(-c3ccccc3C)nc3c(c(C)nn3-c3ccccc3)c2cc1OC | -2.95%
CCc1ccc(NC(=O)CC2C(=O)N(c3cccc(C)c3)C(=O)N2Cc2cccs2)cc1 (configuration not stated) | -15.1%
CCN(C(=O)Cn1c(C(=O)OC)cc2oc3ccccc3c21)c1cccc(C)c1 | -23.2%
COC(=O)c1ccc(NC(=O)CC2C(=O)N(c3ccc(Cl)cc3)C(=O)N2Cc2cccs2)cc1 (configuration not stated) | -30.1%
O=C(NCc1ccccc1)c1cc(-c2cccc(Cl)c2)on1 | 24.1%
CCCc1cc(=O)[nH]c(Nc2cc(C)ccc2OC)n1 | -20.4%
CCc1ccc(NC(=O)CC2C(=O)N(c3cccc(OC)c3)C(=O)N2Cc2ccc(F)cc2)cc1 (configuration not stated) | -14.9%
CCc1ccc(NC(=O)CC2C(=O)N(c3cccc(C)c3)C(=O)N2Cc2ccc(F)cc2)cc1 (configuration not stated) | -27.1%
Cc1ccc(-c2cc(C(=O)Nc3ccc(SC(F)F)cc3)no2)cc1F | -11.9%
CCCOc1ccc(NC(=O)CC2C(=O)N(c3ccccc3)C(=O)N2Cc2ccco2)cc1 (configuration not stated) | 1.05%
Cc1ccc(S(=O)(=O)Nc2cccc(-c3ccc(N4CCC(C)CC4)nn3)c2)s1 | 57.1%
CCc1nn(CC(=O)NC2CC2)c(=O)c2cc3c(OC)cccc3n12 | 1.28%
COc1ccc(-c2cc(C(=O)Nc3c(C)n(C)n(-c4ccccc4)c3=O)no2)cc1OC | -4.37%
COc1cc(NC(=O)CCCOc2cc(=O)n(C)c3ccccc23)cc(OC)c1OC | inactive: -14.2% [at 11.5 µM, percent change from vehicle, -100% = no light]
CC(C)(O)CC[C@@H](O)[C@](C)(O)[C@H]1CC[C@@]2(O)C3=CC(=O)[C@@H]4C[C@@H](O)[C@@H](O)C[C@]4(C)[C@@H]3CC[C@]12C | inactive: -37.5%
COc1cc(C2C(=O)N(C3CCCCC3)CC(=O)N2C2CCCCC2)ccc1OC(C)C (configuration not stated) | -4.11%
CCc1ccccc1NC(=O)c1noc2c1CC(C(C)(C)C)CC2 (configuration not stated) | 4.56%
CCOc1ccc(NC(=O)CC2C(=O)N(c3cccc(C)c3)C(=O)N2Cc2cccs2)cc1 (configuration not stated) | -8.84%
CCCCN1CC(c2nc3ccccc3n2CCCCOc2cccc(C)c2C)CC1=O (configuration not stated) | inactive: -38.1%
COc1cc(NC(=O)CCc2c(C)nn(-c3ccc(N4CCCCC4)nn3)c2C)cc(OC)c1OC | 68.3%
COc1ccc(OC)c(CNc2nc3ccc(C)cc3n3nnnc23)c1 | -15.2%
COc1cccc(OCCn2c(-c3ccc(Cl)cc3)nc3ccccc3c2=O)c1 | 2.39%
CCOC(=O)c1c(NC(=O)C(C)Oc2ccccc2F)sc(C(C)=O)c1C (configuration not stated) | -6.82%

Compound | activity change, positive = activation
CCc1ccc(NC(=O)c2ccc(CNS(=O)(=O)c3ccc4c(c3)C(C)(C)C(=O)N4C)cc2)cc1 | inactive: -15.7%
Cn1c(=O)n(C)c2cc(NS(=O)(=O)c3ccc(Cl)cc3)c(NCc3ccccc3)cc21 | 35.1%
Cc1cccc(N2CCN(C(=O)C3CCN(S(=O)(=O)Cc4ccccc4)CC3)CC2)c1C | -6.72%
CCCCN(CCCC)S(=O)(=O)c1ccc(NC(=O)c2c(-c3ccccc3)noc2C)cc1 | -26.2%
Cc1cc(C)cc(OCCOCCn2c(-c3ccc(Cl)cc3)nc3ccccc3c2=O)c1 | 13.8%
O=C1C(=O)N(C2CCN(C(=O)c3ccc(F)cc3)CC2)CCN1Cc1ccc(F)cc1 | -3.14%
CCc1nnc2c3ccccc3nc(Nc3ccc(F)cc3C)n12 | -9.92%
N=c1n(CCO)c2ccccc2n1CCOc1ccc(F)cc1 | -0.299%
COC(=O)c1c(NC(=O)CCCOc2cccc(C)c2)sc2c1CCC(C)C2 (configuration not stated) | -8.85%
CC(C)(C)c1ccc(C(=O)Nc2ccc3nc(SCC(=O)N4CCCC4)sc3c2)cc1 | inactive: -86%
COc1ccc(-c2c3c(=O)n(C)c(=O)n(C)c3c3n2-c2ccccc2NC3c2ccccc2OC)cc1 (configuration not stated) | 16.6%
OCCN1CCN(CCCN2c3ccccc3Sc3ccc(Cl)cc32)CC1 | inactive: -20.2%
COc1cccc(CNC(=O)CCc2c(C)c3cc4c(C)coc4cc3oc2=O)c1 | -8.56%
COc1ccccc1-c1cc(C(=O)Nc2c(C)nn(Cc3ccc(Cl)cc3)c2C)no1 | -73.4%
COc1ccc(C=Cc2cc(OC)c(OC)c(OC)c2)cc1NC(=O)[C@H](N)CO | inactive: -37.3%
COc1ccc(-c2nc(CSCC(=O)N3CCN(c4ccc(OC)cc4)CC3)c(C)o2)cc1 | inactive: -21.7%
COc1ccccc1N(CC(=O)NCCSCc1ccccc1Cl)S(C)(=O)=O | inactive: -29.1%
Cn1c(=O)n(C)c2cc(NS(=O)(=O)c3ccc(Br)cc3)c(NCc3ccccc3)cc21 | 38.6%
O=S(=O)(Nc1cccc(-c2ccc(N3CCCCC3)nn2)c1)c1cccc(F)c1 | 42.9%
COc1ccc(C2C(=O)N(C3CCC(C)CC3)CC(=O)N2CCc2ccccc2)cc1OC (configuration not stated) | -12.6%
CCOC(=O)c1sc(NC(=O)c2cc(CC)on2)c(C(=O)OCC)c1C | 2.48%
Cc1nc2ccn(Cc3ccco3)c(=O)c2cc1C(=O)N1CCN(c2ccccc2F)CC1 | -11.7%
O=C(CC1C(=O)N(c2ccc(F)cc2)C(=O)N1Cc1cccnc1)Nc1ccc(F)cc1 (configuration not stated) | -6.27%
